{"source": "PubChem BioAssay AID485294", "about": "(National Center for Advancing Translational Sciences (NCATS), 2010)", "note": "The whole screen tested about 370,000 compounds, of which about 150 (0.041%) were called active. This list was built around the results that the source calls inconclusive (neither active nor inactive); the mix of calls is not that of the screen. The call rests on the fitted dose curve; in most records, active means well fitted inhibition curve with a large enough effect; inconclusive means small, poorly fitted or top-dose-only effect; inactive means flat fitted curve, though single readings scatter. No potency is given beside an inconclusive call; the fits are too rough. Potency means the concentration at half of the fitted maximal effect; tags describe the fitted curve by direction and shape."}
{"biological_target": "Beta-lactamase (Escherichia coli (strain K12)) (UniProt P00811)", "sequence (P00811 whole entry, looked up)": "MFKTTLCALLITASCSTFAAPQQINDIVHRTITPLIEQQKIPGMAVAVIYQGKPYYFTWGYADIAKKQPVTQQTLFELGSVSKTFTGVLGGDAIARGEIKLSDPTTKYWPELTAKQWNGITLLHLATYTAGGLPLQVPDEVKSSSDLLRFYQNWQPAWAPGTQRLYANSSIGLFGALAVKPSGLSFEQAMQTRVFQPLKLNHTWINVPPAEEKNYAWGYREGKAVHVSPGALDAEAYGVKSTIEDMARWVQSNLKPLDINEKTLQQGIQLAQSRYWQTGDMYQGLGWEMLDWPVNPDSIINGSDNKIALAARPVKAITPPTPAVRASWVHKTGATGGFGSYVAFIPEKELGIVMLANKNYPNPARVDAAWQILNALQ", "test": "qHTS Inhibitors of AmpC Beta-Lactamase (assay with detergent); further: nearly all actives have a fitted effect of over 25% in size;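 on activity change, negative = inhibition: 0% = no-compound wells and -100% = no-enzyme wells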", "conditions": "AmpC hydrolysis of nitrocefin, absorbance 480 nm, 0.01% Triton; activity change, negative = inhibition: at 114 µM (top of the series)", "procedure,_shortened": "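AmpC (5.3 nM in the dispensed reagent) in 20 mM phosphate pH 7.0 with 0.01% (detergent screen) or 0.0001% Triton X-100 was preincubated with compounds for 15 min at room temperature. Nitrocefin was then added from an 800 uM solution, and hydrolysis was followed at 480 nm.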"}
{"smiles": "Cc1cccc(N2CCN(CC(=O)N(C3CCCC3)C3CCS(=O)(=O)C3)CC2)c1C", "note": "(stereo not drawn)", "activity change, negative = inhibition": "inactive: 4.88%"}
{"smiles": "CC(=O)N(C(C)=O)N1C(=O)/C(=C/c2ccc(Cl)cc2)SC1=S", "Potency": "inconclusive [inhibitor, full curve]"}
{"smiles": "CCOC(=O)CNC(=O)c1cc(C)oc1C", "activity change, negative = inhibition": "inactive: -0.619%"}
{"smiles": "c1ccc(-c2nc(-c3ccco3)n3ccccc23)cc1", "Potency": "inconclusive [inhibitor, full curve, poor fit]"}
{"smiles": "Cc1cc(C(=O)CN2C(=O)NC(C)(c3cccc(Br)c3)C2=O)c(C)n1Cc1ccco1", "note": "(stereo not drawn)", "activity change, negative = inhibition": "inactive: -10.5%"}
{"smiles": "CN=C1SC(CC(=O)Nc2cccc(C(F)(F)F)c2)C(=O)N1C", "note": "(stereo not drawn)", "Potency": "inconclusive [inhibitor, full curve, poor fit]"}
{"smiles": "Cc1cc(-c2n[nH]c(=S)n2/N=C/C(Br)=C/c2ccccc2)n[nH]1", "Potency": "inconclusive [inhibitor, full curve, poor fit]"}
{"smiles": "O=C(CNS(=O)(=O)c1ccc(Br)s1)NCC1COc2ccccc2O1", "note": "(stereo not drawn)", "Potency": "inconclusive [inhibitor, partial curve, poor fit]"}
{"smiles": "Cc1cc(O)c2c(c1)OC(C)(C)C1=C2CC(C)CC1", "note": "(stereo not drawn)", "Potency": "inconclusive [inhibitor, partial curve, poor fit]"}
{"smiles": "COc1ccc(NC(=O)CSc2nnc(C)s2)cc1S(=O)(=O)N1CCOCC1", "Potency": "inconclusive [inhibitor, partial curve, poor fit]"}
{"smiles": "CCSc1nnc(CCNS(=O)(=O)c2ccc(C(C)=O)cc2)n1C", "Potency": "inconclusive [inhibitor, full curve, poor fit]"}
{"smiles": "C/C(=N\\NC(=O)c1ccc2c(c1)OCO2)c1ccc(NC(=O)CCCC(=O)O)cc1", "Potency": "inconclusive [inhibitor, full curve]"}
{"smiles": "CCn1c(SCc2ccccc2)nnc1-c1ccc(S(=O)(=O)N2CCCCC2)cc1", "Potency": "inconclusive [inhibitor, partial curve, poor fit]"}
{"smiles": "COc1ccc(CCNC(=O)CS(=O)(=O)c2cn(CC(=O)N3CCCC3)c3ccccc23)cc1OC", "activity change, negative = inhibition": "inactive: -0.389%"}
{"smiles": "COc1ccc(NC(=O)/C=C/c2cccc(F)c2)cn1", "Potency": "inconclusive [inhibitor, single point]"}
{"smiles": "C=CCNc1nc(Nc2ccc(OC)cc2OC)nc(OCC)n1", "Potency": "inconclusive [inhibitor, full curve]"}
{"smiles": "CCCCSc1nc2c(c(=O)n1CC)SC(C)C2", "note": "(stereo not drawn)", "Potency": "inconclusive [inhibitor, full curve, poor fit]"}
{"smiles": "CCNC(=O)C1CN(S(=O)(=O)c2ccccc2)CCN1S(=O)(=O)c1ccccc1", "note": "(stereo not drawn)", "Potency": "inconclusive [inhibitor, full curve]"}
{"smiles": "O=C(Nc1ccc(Cl)cc1)c1cccc(N2C(=O)C3C4CCC(C4)C3C2=O)c1", "note": "(stereo not drawn)", "activity change, negative = inhibition": "inactive: -1.96%"}
{"smiles": "Cc1sc2ncn(CC(=O)NCCCC(=O)NCc3ccc(F)cc3)c(=O)c2c1C", "Potency": "inconclusive [inhibitor, full curve, poor fit]"}
{"smiles": "Cc1cc2ncn(CCOc3ccccc3)c2cc1C", "Potency": "inconclusive [inhibitor, full curve, poor fit]"}
{"smiles": "Cc1cc(C)nc(N2CCCC(C(=O)Nc3cc(F)ccc3C)C2)n1", "note": "(stereo not drawn)", "Potency": "inconclusive [inhibitor, full curve]"}
{"smiles": "COc1ccc(C(=O)c2cn[nH]c2-c2cc(Cl)ccc2O)cc1", "Potency": "inconclusive [inhibitor, full curve, poor fit]"}
{"smiles": "COc1ccc(CNC(=O)CN(C(=O)c2snc(C(N)=O)c2N)c2ccccc2F)cc1", "Potency": "inconclusive [inhibitor, full curve]"}
{"smiles": "CSc1nccc(-c2cc(Cl)sc2Cl)n1", "Potency": "inconclusive [inhibitor, partial curve]"}
{"smiles": "COC(=O)CSc1n[nH]c(-c2cccnc2)n1", "Potency": "inconclusive [inhibitor, full curve, poor fit]"}
{"smiles": "Cc1ccc(NC(=O)CSc2ncc3c(n2)-c2ccccc2N(Cc2cccc(F)c2)S3(=O)=O)cc1F", "activity change, negative = inhibition": "inactive: -0.509%"}
{"smiles": "Cn1c(=O)c2nncnc2n(C)c1=O", "Potency": "inconclusive [inhibitor, full curve, poor fit]"}
{"smiles": "Cc1ccc(C(=O)CNc2cc(C)ccc2C)cc1", "Potency": "inconclusive [inhibitor, partial curve]"}
{"smiles": "COc1ccc(NC(=O)CCN2C(=O)c3ccccc3C2=O)cc1", "Potency": "inconclusive [inhibitor, partial curve, poor fit]"}
{"smiles": "COc1ccc(-n2c(/C=C/c3ccccc3F)nc3cc(OC)c(OC)cc3c2=O)cc1Cl", "activity change, negative = inhibition": "inactive: -1.06%"}
{"smiles": "COc1cc(NC(=O)Cc2ccc(S(=O)(=O)N3CCOCC3)s2)c(OC)cc1Cl", "activity change, negative = inhibition": "inactive: -5.23%"}
{"smiles": "O=S(=O)(NC1CC1)c1ccc(S(=O)(=O)N2CCCC(c3nc(-c4cccnc4)no3)C2)cc1", "note": "(stereo not drawn)", "Potency": "inconclusive [inhibitor, full curve, poor fit]"}
{"smiles": "O=C1C(=O)N(CCN2CCCCC2)c2ccccc21", "Potency": "inconclusive [inhibitor, full curve, poor fit]"}
{"smiles": "CCn1c(NC(=O)c2cccc(Cn3cc(Cl)cn3)c2)nc2ccccc21", "Potency": "inconclusive [inhibitor, full curve]"}
{"smiles": "Cc1ccc(OCCOc2ccc(Cl)cc2Cl)c([N+](=O)[O-])n1", "activity change, negative = inhibition": "inactive: -0.717%"}
{"smiles": "O=C(COC(=O)Cc1ccc(S(=O)(=O)N2CCOCC2)s1)NCc1ccc(Cl)cc1", "Potency": "inconclusive [inhibitor, single point]"}
{"smiles": "CCc1nc(SCC(=O)c2ccccc2)c2ccccc2n1", "activity change, negative = inhibition": "inactive: 1.22%"}
{"smiles": "CCOc1cc(-c2sc(Nc3cc(C)ccc3OC)n[n+]2-c2ccccc2)ccc1OC", "Potency": "inconclusive [inhibitor, full curve]"}
{"smiles": "CCn1c(SCC(=O)Nc2sc3c(c2C#N)CCC(C(C)(C)C)C3)nnc1-c1ccco1", "note": "(stereo not drawn)", "Potency": "inconclusive [inhibitor, partial curve, poor fit]"}
{"smiles": "COC(=O)c1ccc(/C=N/n2c(C)nc3ccccc3c2=O)cc1", "activity change, negative = inhibition": "inactive: -1.35%"}
{"smiles": "O=C(c1ccc(CSc2ccccc2)cc1)N1CCN(c2ccccc2)CC1", "Potency": "inconclusive [inhibitor, partial curve]"}
{"smiles": "CCCn1c(SCN2C(=O)c3ccccc3C2=O)nc2cc(Cl)ccc2c1=O", "Potency": "inconclusive [inhibitor, full curve, poor fit]"}
{"smiles": "COc1ccc(-c2ccc(=O)n(CC(=O)NCC3COCCO3)n2)cc1", "note": "(stereo not drawn)", "Potency": "inconclusive [inhibitor, full curve, poor fit]"}
{"smiles": "c1cncc(Nc2nc(-c3cccnc3)cs2)c1", "activity change, negative = inhibition": "inactive: -5.22%"}
{"smiles": "Cc1ccc(N=C2NC(=O)/C(=C/c3cn(C)c4ccccc34)S2)cc1C", "Potency": "inconclusive [inhibitor, full curve]"}
{"smiles": "Cc1cccc(OCc2nnc(SCC(=O)NCC3CCCO3)n2C)c1", "note": "(stereo not drawn)", "Potency": "inconclusive [inhibitor, full curve]"}
{"smiles": "Cc1ccc(NNC(=O)C(=O)N2CCCCC2)cc1", "Potency": "inconclusive [inhibitor, partial curve, poor fit]"}
{"smiles": "COc1ccc(C(C(=O)NC2CCCCC2)N(Cc2cccs2)C(=O)Cc2c[nH]c3ccccc23)cc1", "note": "(stereo not drawn)", "Potency": "inconclusive [inhibitor, partial curve]"}
{"smiles": "CN(Cc1ccc(O)cc1)C1CCCCC1", "Potency": "inconclusive [inhibitor, full curve, poor fit]"}
{"smiles": "C/C(=N\\Nc1ccc(S(N)(=O)=O)cc1[N+](=O)[O-])c1ccco1", "Potency": "inconclusive [inhibitor, single point]"}
{"smiles": "COCCC(=O)N1CCc2ccc(NC(=O)c3ccc(C(F)(F)F)cc3)cc2C1", "Potency": "inconclusive [inhibitor, partial curve]"}
{"smiles": "S=C(c1ccc[nH]1)N1CCOCC1", "Potency": "inconclusive [inhibitor, full curve, poor fit]"}
{"smiles": "O=P(c1cccs1)(c1cccs1)c1cccs1", "Potency": "inconclusive [inhibitor, partial curve]"}
{"smiles": "Cc1nnc2sc(SCc3ccc(Cl)cc3)nn2c1=O", "activity change, negative = inhibition": "inactive: -8.57%"}
{"smiles": "O=C(Nc1nncs1)c1c(F)c(F)c(F)c(F)c1F", "Potency": "inconclusive [inhibitor, full curve, poor fit]"}
{"smiles": "CC1(C(=O)N/N=C/c2ccccc2)CC1(Cl)Cl", "note": "(stereo not drawn)", "activity change, negative = inhibition": "inactive: 1.11%"}
{"smiles": "COc1ccc(C[C@H](C(=O)O)N2C(=O)c3ccc(C(=O)O)cc3C2=O)cc1", "Potency": "inconclusive [inhibitor, full curve]"}
{"smiles": "O=C(CC1CCCC1)N1CCN(S(=O)(=O)c2ccccc2)CC1", "Potency": "inconclusive [inhibitor, full curve, poor fit]"}
{"smiles": "COc1ccc(CNc2cccc3[nH]c(C(F)(F)F)nc23)cc1OC", "activity change, negative = inhibition": "inactive: 3.27%"}
{"smiles": "COc1ccc(-c2nn(CCC#N)cc2C(=O)Nc2cccc([N+](=O)[O-])c2)cc1OC", "Potency": "inconclusive [inhibitor, full curve, poor fit]"}
{"smiles": "COc1ccc2nc(NC(=O)CCn3cccc3)sc2c1", "activity change, negative = inhibition": "inactive: -1.7%"}
{"smiles": "CC(C)c1ccc(S(=O)(=O)c2nnn3c2nc(NCCc2ccccc2)c2sccc23)cc1", "activity change, negative = inhibition": "inactive: -4.19%"}
{"smiles": "O=C(N/N=C/c1ccccc1C(=O)O)c1cc(-c2ccc3c4c(cccc24)CC3)n[nH]1", "Potency": "inconclusive [inhibitor, partial curve, poor fit]"}
{"smiles": "COc1ccc(/C=C/c2ccccc2)cc1[C@H]1[C@@H]2C=CCC[C@@]2(C)C(=O)N1Cc1ccccc1", "activity change, negative = inhibition": "inactive: -1.39%"}
{"smiles": "CN(C)c1ccc(CN(C(=O)/C=C/c2ccco2)C2CCS(=O)(=O)C2)cc1", "note": "(stereo not drawn)", "activity change, negative = inhibition": "inactive: -2.53%"}
{"smiles": "CC(C)NC(=O)COc1nncc2ccccc12", "activity change, negative = inhibition": "inactive: -15%"}
{"smiles": "NC(=O)CSc1nnc(COc2cccc3ccccc23)o1", "Potency": "inconclusive [inhibitor, partial curve, poor fit]"}
